Results taken from PMC8214760.
These are yes or no findings as the source states them, for the method shown. In cells and extracts the contact can be indirect. Some results given as binding are weak or reduced against the parent protein; the word gives no strength. For some assays here: Where a sequence is shown, tags or fusion partners need not be part of it.

Sequences of proteins named here, by UniProt entry; tags and fusion partners are left off.
UniProt P62491: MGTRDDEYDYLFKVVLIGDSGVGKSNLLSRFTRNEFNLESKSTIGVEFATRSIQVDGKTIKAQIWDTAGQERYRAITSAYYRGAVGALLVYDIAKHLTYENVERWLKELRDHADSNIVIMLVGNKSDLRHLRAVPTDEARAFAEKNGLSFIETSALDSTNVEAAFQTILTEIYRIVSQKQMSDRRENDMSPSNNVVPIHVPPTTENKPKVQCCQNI
UniProt Q9UPT5: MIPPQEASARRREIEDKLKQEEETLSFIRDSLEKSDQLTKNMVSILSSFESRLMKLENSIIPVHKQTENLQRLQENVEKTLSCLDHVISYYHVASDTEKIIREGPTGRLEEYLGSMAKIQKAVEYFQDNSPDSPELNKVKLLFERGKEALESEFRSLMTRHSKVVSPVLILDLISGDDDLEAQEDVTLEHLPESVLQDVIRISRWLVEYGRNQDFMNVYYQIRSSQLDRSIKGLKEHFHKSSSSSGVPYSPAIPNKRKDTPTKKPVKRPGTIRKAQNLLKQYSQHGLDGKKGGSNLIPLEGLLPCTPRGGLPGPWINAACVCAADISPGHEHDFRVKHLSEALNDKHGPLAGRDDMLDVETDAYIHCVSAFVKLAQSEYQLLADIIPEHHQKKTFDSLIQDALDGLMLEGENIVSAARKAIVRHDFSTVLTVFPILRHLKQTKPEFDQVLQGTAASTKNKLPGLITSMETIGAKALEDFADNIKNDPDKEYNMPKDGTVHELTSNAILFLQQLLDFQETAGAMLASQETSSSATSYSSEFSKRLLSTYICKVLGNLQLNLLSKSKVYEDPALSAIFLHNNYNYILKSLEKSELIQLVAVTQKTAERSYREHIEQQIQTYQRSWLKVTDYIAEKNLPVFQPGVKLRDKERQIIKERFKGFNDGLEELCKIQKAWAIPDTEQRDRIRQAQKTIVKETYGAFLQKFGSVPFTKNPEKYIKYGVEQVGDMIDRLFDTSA
UniProt Q8TAG9: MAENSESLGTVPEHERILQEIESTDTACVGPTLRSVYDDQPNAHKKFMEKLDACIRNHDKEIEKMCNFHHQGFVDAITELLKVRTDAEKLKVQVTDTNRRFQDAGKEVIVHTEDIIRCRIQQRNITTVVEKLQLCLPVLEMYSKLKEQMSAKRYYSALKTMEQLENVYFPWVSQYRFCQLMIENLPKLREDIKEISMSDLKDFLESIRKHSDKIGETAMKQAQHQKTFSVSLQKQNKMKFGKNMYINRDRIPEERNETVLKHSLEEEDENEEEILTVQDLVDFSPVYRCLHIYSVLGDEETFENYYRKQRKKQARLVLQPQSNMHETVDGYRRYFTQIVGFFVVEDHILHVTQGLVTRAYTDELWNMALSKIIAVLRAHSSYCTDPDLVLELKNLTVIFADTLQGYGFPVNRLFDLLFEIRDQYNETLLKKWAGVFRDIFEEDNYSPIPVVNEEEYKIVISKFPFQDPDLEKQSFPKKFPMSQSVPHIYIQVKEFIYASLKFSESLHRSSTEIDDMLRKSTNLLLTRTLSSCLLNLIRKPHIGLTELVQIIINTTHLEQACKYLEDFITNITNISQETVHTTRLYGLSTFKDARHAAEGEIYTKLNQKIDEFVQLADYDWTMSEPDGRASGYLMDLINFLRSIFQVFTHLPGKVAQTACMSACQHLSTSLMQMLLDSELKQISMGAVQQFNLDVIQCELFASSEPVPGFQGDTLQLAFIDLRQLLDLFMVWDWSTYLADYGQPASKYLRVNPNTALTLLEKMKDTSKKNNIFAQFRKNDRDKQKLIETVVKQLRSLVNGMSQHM
UniProt Q96A65: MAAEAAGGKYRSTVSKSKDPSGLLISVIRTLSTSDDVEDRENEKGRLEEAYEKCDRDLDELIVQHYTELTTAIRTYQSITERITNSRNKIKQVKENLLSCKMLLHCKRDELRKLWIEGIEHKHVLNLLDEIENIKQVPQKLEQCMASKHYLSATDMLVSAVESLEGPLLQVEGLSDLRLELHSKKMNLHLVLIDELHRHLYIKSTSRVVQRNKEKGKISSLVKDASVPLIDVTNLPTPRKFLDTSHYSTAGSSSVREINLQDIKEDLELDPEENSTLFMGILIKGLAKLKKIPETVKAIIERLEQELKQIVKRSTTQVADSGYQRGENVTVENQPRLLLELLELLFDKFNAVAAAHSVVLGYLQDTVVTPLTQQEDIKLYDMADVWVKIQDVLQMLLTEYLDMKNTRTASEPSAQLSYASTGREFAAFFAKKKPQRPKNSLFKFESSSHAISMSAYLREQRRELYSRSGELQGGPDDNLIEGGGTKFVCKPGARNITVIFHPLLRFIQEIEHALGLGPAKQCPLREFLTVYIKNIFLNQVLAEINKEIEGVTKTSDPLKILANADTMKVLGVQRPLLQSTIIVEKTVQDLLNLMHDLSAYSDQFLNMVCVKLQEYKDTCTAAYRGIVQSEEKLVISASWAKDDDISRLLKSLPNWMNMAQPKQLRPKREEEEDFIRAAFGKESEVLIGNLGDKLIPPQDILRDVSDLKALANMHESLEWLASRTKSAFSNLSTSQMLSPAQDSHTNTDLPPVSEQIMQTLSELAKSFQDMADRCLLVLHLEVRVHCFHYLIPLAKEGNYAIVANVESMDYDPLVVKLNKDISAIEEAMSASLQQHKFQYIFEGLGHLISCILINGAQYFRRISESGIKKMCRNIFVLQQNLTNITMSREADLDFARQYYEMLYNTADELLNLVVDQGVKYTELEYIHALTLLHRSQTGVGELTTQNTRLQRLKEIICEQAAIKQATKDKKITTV

T1: GFP tagged to wild-type GRAB (GRAB-GFP) (UniProt Q8TBN0)
T1 sequence: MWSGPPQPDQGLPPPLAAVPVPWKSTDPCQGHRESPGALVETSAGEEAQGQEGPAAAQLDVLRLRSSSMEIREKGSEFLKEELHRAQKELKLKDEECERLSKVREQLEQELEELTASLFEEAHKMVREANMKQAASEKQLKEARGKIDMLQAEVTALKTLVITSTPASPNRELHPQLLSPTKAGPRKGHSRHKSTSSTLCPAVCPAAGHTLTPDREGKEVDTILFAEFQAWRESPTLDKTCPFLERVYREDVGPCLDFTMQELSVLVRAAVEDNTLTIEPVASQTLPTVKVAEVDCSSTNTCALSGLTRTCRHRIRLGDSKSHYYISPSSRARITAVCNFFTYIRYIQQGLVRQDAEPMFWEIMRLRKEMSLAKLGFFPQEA

T2: GFP-tagged Rab3 (GFP-Rab3a) (UniProt P20336)
T2 sequence: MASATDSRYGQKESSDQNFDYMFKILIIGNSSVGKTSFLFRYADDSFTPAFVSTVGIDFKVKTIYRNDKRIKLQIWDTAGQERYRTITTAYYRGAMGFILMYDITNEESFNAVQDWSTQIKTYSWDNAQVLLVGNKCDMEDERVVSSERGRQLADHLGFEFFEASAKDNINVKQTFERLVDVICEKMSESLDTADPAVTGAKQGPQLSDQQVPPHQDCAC

T3: GRAB Δ223-228-GFP (UniProt Q8TBN0)
T3 sequence: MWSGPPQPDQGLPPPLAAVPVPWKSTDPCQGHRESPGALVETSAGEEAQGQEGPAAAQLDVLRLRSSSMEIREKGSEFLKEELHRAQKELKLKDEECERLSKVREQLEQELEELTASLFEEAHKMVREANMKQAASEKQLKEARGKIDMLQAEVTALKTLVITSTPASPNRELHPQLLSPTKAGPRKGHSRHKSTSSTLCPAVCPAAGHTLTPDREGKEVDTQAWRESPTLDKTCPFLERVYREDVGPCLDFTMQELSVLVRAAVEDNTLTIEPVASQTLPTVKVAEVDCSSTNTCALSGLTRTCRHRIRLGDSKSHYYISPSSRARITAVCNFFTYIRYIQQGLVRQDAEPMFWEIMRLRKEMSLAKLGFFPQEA

B1: GFP-tagged Rab3 (GFP-Rab3a) (protein, UniProt P20336 1-220)
chain: T2 sequence
B2: GFP tagged to wild-type GRAB (GRAB-GFP) (protein, UniProt Q8TBN0 1-382)
chain: T1 sequence
B3: GRAB Δ223-228-GFP (protein, UniProt Q8TBN0)
chain: T3 sequence

How the values were obtained:
[1] = molecular target: GFP-tagged Rab11a (UniProt P62491); assay: co-IP; GFP-fused protein precipitated with GFP-Trap beads from 350-800 µg total HeLa cell extract (RIPA: 50 mM Tris-HCl pH 7.5, 150 mM NaCl, 1% IGEPAL), 2 h at 4°C; washed with RIPA 500 mM NaCl and 150 mM NaCl; western blot
[2] = molecular target: T1, GFP tagged to wild-type GRAB (GRAB-GFP); assay: as above
[3] = molecular target: T2, GFP-tagged Rab3 (GFP-Rab3a); assay: as above
[4] = molecular target: T3, GRAB Δ223-228-GFP; assay: as above
[5] = molecular target: mCherry-tagged Rab11a (UniProt P62491); assay: co-IP; mCherry-Rab11a precipitated with goat anti-mCherry antibody and Protein G-Sepharose from 500-700 µg pre-cleared HeLa cell extract, overnight at 4°C; washed with RIPA 500 mM NaCl and 150 mM NaCl; western blot

Molecule | binding [1] | binding [5] | further results
Exo70 (from UniProt Q9UPT5 1-735) | binds weakly |  | 
Myc-tagged Sec15a (from UniProt Q8TAG9 1-804) | binds weakly |  | binding [2]: no binding; binding [3]: no binding
Sec8 (from UniProt Q96A65 1-974) | binds weakly |  | 
mCherry-tagged Rab11a (from UniProt P62491 1-216) |  |  | binding [2]: binds; binding [4]: binds; binding [3]: binds
B1 |  | binds | 
B2 |  | binds | 
B3 |  | binds | 
